# Test results from PubChem BioAssay AID894 (National Center for Advancing Translational Sciences (NCATS), 2007).
# Where “and” joins values, the source holds several entries; their conditions need not be identical. Identical values can stand only once. Out of some 150,000 compounds screened, about 6,500 (4.3%) were called active. Inconclusive results, whose numbers are uncertain, are shown with a selection of clear calls. Calls come from the whole dose curve; as a rule, active = well fitted inhibition curve with a large enough effect (not every such curve was filed as active); inconclusive = small, poorly fitted or top-dose-only effect, or another doubt; inactive = no such curve, though single readings can be large or run the other way. A potency beside an inconclusive call is a rough fit, not a confirmed value.
# Target: 15-hydroxyprostaglandin dehydrogenase [NAD(+)] (Homo sapiens) (UniProt P15428)
# Assay: qHTS Assay for Inhibitors of HPGD (15-Hydroxyprostaglandin Dehydrogenase)
# Settings: purified HPGD, NADH fluorescence kinetic, PGE2 substrate; activity change, negative = inhibition: hits give low values
# Method in brief: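 NADH formation kinetics: reaction with 30 uM PGE2 and 1 mM NAD+ (final), 20 nM enzyme, Tris-HCl pH 8 with Tween 20, after 15 min compound preincubation at room temperature. Fluorescence change, last versus first of five reads.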
# % is set by controls: 0 for no effect and ±100 for the full control effect; potency is the fitted concentration of half-maximal effect; tags give direction and shape of the fitted curve.
# UniProt P15428, sequence (P15428 whole entry, looked up): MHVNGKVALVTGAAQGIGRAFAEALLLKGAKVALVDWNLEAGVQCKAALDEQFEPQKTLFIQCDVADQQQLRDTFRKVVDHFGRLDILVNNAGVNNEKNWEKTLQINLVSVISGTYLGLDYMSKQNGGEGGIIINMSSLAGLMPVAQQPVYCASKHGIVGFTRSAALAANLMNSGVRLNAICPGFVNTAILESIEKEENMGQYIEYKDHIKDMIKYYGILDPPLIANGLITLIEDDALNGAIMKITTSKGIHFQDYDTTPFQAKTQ
Compound,Potency,"activity change, negative = inhibition"
COc1cccc(NC(=O)c2cc(C(=O)Nc3cccc(OC)c3)n(C)n2)c1,"inconclusive: 35.5 µM [inhibitor, single point]",–
Cn1cc(Br)c(C(=O)NC2C3CC4CC(C3)CC2C4)n1 (centres undefined),active: 15.8 µM,–
COc1cccc(/C=C2\C(=O)N(c3cccc(C)c3)C(=O)c3ccccc32)c1,active: 3.98 µM,–
COc1cc(C2NC(=O)NC(O)(C(F)(F)F)C2C(=O)c2cccs2)ccc1O (centres undefined),–,inactive: -6.63%
CC(C)OC(=O)c1nnn(-c2nonc2N)c1CSc1ccccn1,"inconclusive: 25.1 µM [inhibitor, partial curve]",–
Cc1ccc2nc(-c3ccc(NC(=O)COC(=O)c4ccco4)cc3)sc2c1,"inconclusive: 25.1 µM [inhibitor, partial curve]",–
CC(C)(C)C1CCc2c(sc(NC(=O)c3ccco3)c2C(N)=O)C1 (centres undefined),"inconclusive: 25.1 µM [inhibitor, partial curve]",–
CCOC(=O)N1CCN(C(=O)CSc2ccccc2)CC1,active: 10 µM,–
Cc1cc(NC(=O)c2oc3ccccc3c2C)ccc1-n1cnnn1,"inconclusive: 35.5 µM [inhibitor, single point]",–
O=C(CSc1nc2ccccc2[nH]1)NCC1CCCO1 (centres undefined),–,inactive: -9.84%
O=C(CSc1nnc(-c2ccc(O)cc2)n1Cc1ccco1)c1cccs1,"inconclusive: 25.1 µM [inhibitor, single point]",–
COCCNC(=O)c1ccc2c(=O)n(CCOC)c(=O)[nH]c2c1,"inconclusive: 39.8 µM [inhibitor, single point]",–
OC(COc1ccc2c(c1)OCO2)CN1CCc2ccccc2C1 (centres undefined),–,inactive: -12.4%
COc1ccccc1C(=O)NCCn1cc(SCC(=O)Nc2nnc(C)s2)c2ccccc21,–,inactive: -15%
CC(C)Oc1ccc(-c2cc(C(=O)NCCN3CCOCC3)c3ccccc3n2)cc1,"inconclusive: 22.4 µM [inhibitor, partial curve, poor fit]",–
COc1ccc(C2COc3c(ccc(O)c3OC)C2)c(OC)c1O (centres undefined),–,inactive: -12.8%
COCCn1c(=O)c(-c2cccs2)nc2cnc(OCc3ccccc3)nc21,"inconclusive: 12.6 µM [inhibitor, partial curve]",–
CCOC(=O)CSc1cc(CS(=O)c2ccc(Cl)cc2)nc(-c2ccccc2)n1 (centres undefined),"inconclusive: 31.6 µM [inhibitor, partial curve]",–
O=C(N/N=C/c1ccc2c(c1)OCO2)c1ccc(Br)o1,"inconclusive: 35.5 µM [inhibitor, single point]",–
N#Cc1cnc(SCC(=O)Nc2ccccc2C(F)(F)F)nc1N,"inconclusive: 12.6 µM [inhibitor, partial curve]",–
N#CCCN1CCN(C(=S)c2ccc(-c3cccc(Cl)c3)o2)CC1,active: 28.2 µM,–
Cc1c(C(=O)O)cnc2cc(-c3ccc(Cl)cc3)nn12,"inconclusive: 0.891 µM [inhibitor, full curve, poor fit]",–

Compound,Potency,"activity change, negative = inhibition"
N#C/C(C(=O)NCc1ccccc1)=C1/N=C(NC(=O)c2cccs2)c2ccccc21,–,inactive: -20.9%
O=C(Cn1cnc2ccccc2c1=O)Nc1cccc(-c2nnc3n2CCCCC3)c1,–,inactive: -12%
CCCc1c(C)c2c(C)[nH]nc2oc1=O,"inconclusive: 25.1 µM [inhibitor, partial curve]",–
COc1ccc(C(CC(=O)NCc2ccco2)c2ccc(F)cc2)cc1 (centres undefined),active: 15.8 µM,–
COC(=O)/C=C\C(=O)Nc1cccc([N+](=O)[O-])c1,active: 3.16 µM,–
Cc1cc(C)cc(NC(=O)CSc2ccc(-c3ccco3)nn2)c1,"inconclusive: 22.4 µM [inhibitor, partial curve]",–
CCOC(=O)c1sc(NC(C)=O)nc1C,"inconclusive: 31.6 µM [inhibitor, partial curve, poor fit]",–
CCOc1ccc2c(c1)C(C)=CC(C)(C)N2,"inconclusive: 14.1 µM [inhibitor, partial curve] and inconclusive: 8.91 µM [inhibitor, partial curve] and inconclusive: 28.2 µM [inhibitor, partial curve]",–
Cc1ccc(NC(=O)c2oc3ccc(S(=O)(=O)N4CCOCC4)cc3c2C)cc1C,"inconclusive: 31.6 µM [inhibitor, partial curve]",–
O=C(C1CCC(CNc2c(N3CCCCC3)c(=O)c2=O)CC1)N1CCCCC1 (centres undefined),active: 0.398 µM,–
Cc1onc(-c2ccccc2)c1C(=O)NC(=S)Nc1sc2c(c1C#N)CCCC2,"inconclusive: 3.55 µM [inhibitor, full curve, poor fit]",–
Cc1cc(C)n(-c2nc3c(c(=O)[nH]c(=O)n3C)n2Cc2cccc(Br)c2)n1,active: 15.8 µM,–
Cc1oc(C(=O)O)cc1COc1ccc2c(C)cc(=O)oc2c1,"inconclusive: 31.6 µM [inhibitor, partial curve]",–
COc1cc2c(cc1OC)C(c1ccc(-c3cc(Cl)ccc3Cl)o1)=NCC2,active: 15.8 µM,–
CCC1(C)Cc2c(sc3nnn(Cc4ccccc4Cl)c(=O)c23)CO1 (centres undefined),–,inactive: -4.99%
COc1ccc(OC)c(-c2nnc(-c3ccc(C)o3)o2)c1,"inconclusive: 31.6 µM [inhibitor, partial curve]",–
Cc1nc2c(c3c1[nH]c1ccccc13)C(O)CC(C)(C)C2 (centres undefined),"inconclusive: 15.8 µM [inhibitor, partial curve]",–
O=[N+]([O-])c1ccccc1S(=O)(=O)Oc1ccc(C(=S)N2CCOCC2)cc1,"inconclusive: 31.6 µM [inhibitor, single point]",–
Cc1c(OCc2nn[nH]n2)ccc2c(-c3ccccc3)cc(=O)oc12,active: 12.6 µM,–
Cc1ccc(-c2nc3ccc(C(=O)O)cc3nc2-c2ccc(C)cc2)cc1,"inconclusive: 28.2 µM [inhibitor, partial curve]",–
CCC(CC)(CC(=O)Nc1cccc(/C=C/c2nc(C3CCC3)cs2)c1)C(=O)O,"inconclusive: 22.4 µM [inhibitor, partial curve]",–
Cc1ccccc1NC(=O)c1sc2nc[nH]c(=O)c2c1C,"inconclusive: 35.5 µM [inhibitor, partial curve]",–
